Measurements published in the supplement of paper PMC11876631.
Substitutions are numbered along the chain they refer to. Names and notes keep the numbering of the source. ± gives the standard deviation of the averaged measurements. Laboratory Escherichia coli strains with one amino-acid change in an essential protein, pooled on minimal glucose agar with carbenicillin or gentamicin at twice the control MIC (plus kanamycin and chloramphenicol for the plasmids), 48 h. Fold change of barcode share against drug-free plates; higher = less susceptible. Active = above 20 in both replicates (the paper's putatively resistant). '<' = one read or none on drug, '>' = one read or none on a drug-free plate. Shares are relative, so most strains fall below 1 when a few take over. Listed are strains with at least 15 reads on both drug-free plates, and hits; most hits rest on fewer reference reads. Replicate rank correlation about 0.5. Edits are read from barcodes.

B1: nrdA L172Q (protein)
chain: MNQNLLVTKRDGSTERINLDKIHRVLDWAAEGLHNVSISQVELRSHIQFYDGIKTSDIHETIIKAAADLISRDAPDYQYLAARLAIFHLRKKAYGQFEPPALYDHVVKMVEMGKYDNHLLEDYTEEEFKQMDTFIDHDRDMTFSYAAVKQLEGKYLVQNRVTGEIYESAQFQYILVAACLFSNYPRETRLQYVKRFYDAVSTFKISLPTPIMSGVRTPTRQFSSCVLIECGDSLDSINATSSAIVKYVSQRAGIGINAGRIRALGSPIRGGEAFHTGCIPFYKHFQTAVKSCSQGGVRGGAATLFYPMWHLEVESLLVLKNNRGVEGNRVRHMDYGVQINKLMYTRLLKGEDITLFSPSDVPGLYDAFFADQEEFERLYTKYEKDDSIRKQRVKAVELFSLMMQERASTGRIYIQNVDHCNTHSPFDPAIAPVRQSNLCLEIALPTKPLNDVNDENGEIALCTLSAFNLGAINNLDELEELAILAVRALDALLDYQDYPIPAAKRGAMGRRTLGIGVINFAYYLAKHGKRYSDGSANNLTHKTFEAIQYYLLKASNELAKEQGACPWFNETTYAKGILPIDTYKKDLDTIANEPLHYDWEALRESIKTHGLRNSTLSALMPSETSSQISNATNGIEPPRGYVSIKASKDGILRQVVPDYEHLHDAYELLWEMPGNDGYLQLVGIMQKFIDQSISANTNYDPSRFPSGKVPMQQLLKDLLTAYKFGVKTLYYQNTRDGAEDAQDDLVPSIQDDGCESGACKI
B2: nrdA L180W (protein)
chain: B1 chain with Q172L, L180W
B3: nrdA L180Q (protein)
chain: B1 chain with Q172L, L180Q
B4: nrdA L180D (protein)
chain: B1 chain with Q172L, L180D
B5: nrdA L180P (protein)
chain: B1 chain with Q172L, L180P
B6: nrdA L227A (protein)
chain: B1 chain with Q172L, L227A
B7: nrdA L227Q (protein)
chain: B1 chain with Q172L, L227Q

Molecular target: Escherichia coli (laboratory strain)
Assay: barcode share on antibiotic plates over drug-free plates; higher = less susceptible
Conditions: antibiotic: carbenicillin; 2× MIC (3.1 µg/mL)
Experimental: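 A pool of E. coli strains, each edited to carry one amino-acid change in an essential protein, was grown for 48 h on minimal glucose agar with or without antibiotic; strain barcodes were sequenced; mean of two replicates.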

Protein	fold change of barcode share
B1	0.334 ± 0.21
B2	0.23 ± 0.037
B3	0.0887 ± 0.00024
B4	0.272 ± 0.15
B5	0.176 ± 0.13
B6	0.514 ± 0.35
B7	0.142 ± 0.042

Same assay, conditions: antibiotic: gentamicin; 2× MIC (MIC 0.45 µg/mL)

Protein	fold change of barcode share
B2	< 0.00575
B3	0.0144 ± 0.011
B6	0.0114 ± 0.0062
B7	< 0.00584
